In the supplement of paper PMC4604168 (melanoma cell lines):
The list shows a part of the results. Repeats are few or missing, and single values can be far off.

How the values were obtained:
Experiment in all cases: cell count relative to DMSO control; melanoma cells; higher = more viable cells
Settings in all cases: library dose: standard library concentration; 72 h
G361 = test system: G361
IPC-298 = test system: IPC-298
IST-MEL1 = test system: IST-MEL1
LB2518-MEL = test system: LB2518-MEL
LOXIMVI = test system: LOXIMVI
MEL-HO = test system: MEL-HO
MZ2-MEL = test system: MZ2-MEL
MeWo = test system: MeWo
RPMI7951 = test system: RPMI7951
RVH-421 = test system: RVH-421
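Note: cells treated in 1,536-well plates, then fixed and DAPI-stained, with nuclei counted from automated high-throughput microscope images.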

Row | Structure (SMILES) | cell count (G361) [%] | cell count (IPC-298) [%] | cell count (IST-MEL1) [%] | cell count (LB2518-MEL) [%] | cell count (LOXIMVI) [%] | cell count (MEL-HO) [%] | cell count (MZ2-MEL) [%] | cell count (MeWo) [%] | cell count (RPMI7951) [%] | cell count (RVH-421) [%]
1 | NC1(c2ccc(-c3nc4ccn5c(=O)[nH]nc5c4cc3-c3ccccc3)cc2)CCC1 + CO[C@H]1C[C@@H]2CC[C@@H](C)[C@@](O)(O2)C(=O)C(=O)N2CCCC[C@H]2C(=O)O[C@H]([C@H](C)C[C@@H]2CC[C@@H](OCCO)[C@H](OC)C2)CC(=O)[C@H](C)/C=C(\C)[C@@H](O)[C@@H](OC)C(=O)[C@H](C)C[C@H](C)/C=C/C=C/C=C/1C [everolimus] (first compound 2 µM, partner dose 0.1 µM) | 46.5 | 62 | 53.8 | 64.8 | 49.4 | 56.6 | 64.4 | 48.9 | 68.9 | 67
2 | CN(c1ncccc1CNc1nc(Nc2ccc3c(c2)CC(=O)N3)ncc1C(F)(F)F)S(C)(=O)=O + CO[C@@H]1[C@H](N(C)C(=O)c2ccccc2)C[C@H]2O[C@]1(C)n1c3ccccc3c3c4c(c5c6ccccc6n2c5c31)C(=O)NC4 [Midostaurin] (first compound 0.4 µM, partner dose 0.4 µM) | 43.7 | 68.1 | 58 | – | 51.4 | 96.3 | – | 70.1 | 39.5 | 56.8
3 | CN(c1ncccc1CNc1nc(Nc2ccc3c(c2)CC(=O)N3)ncc1C(F)(F)F)S(C)(=O)=O + O=C(O)c1ccc2c(c1)nc(Nc1cccc(Cl)c1)c1ccncc12 [CX4945] (first compound 0.4 µM, partner dose 2 µM) | 66 | 66 | 47.5 | 93.2 | 72.9 | 61.7 | 52.8 | 78.2 | 55 | 64.1
4 | C=C(c1ccc(C(=O)O)cc1)c1cc2c(cc1C)C(C)(C)CCC2(C)C [Bexarotene] + N#Cc1c(O)c2c(-c3ccc(-c4ccccc4O)cc3)csc2[nH]c1=O [A769662] (first compound 10 µM, partner dose 10 µM) | 81.3 | 77.8 | 87.3 | 98.6 | 127 | 79.5 | 82.1 | 75.6 | 69.8 | 94.8
5 | CS(=O)(=O)c1ccc(C(=O)Nc2ccc(Cl)c(-c3ccccn3)c2)c(Cl)c1 [vismodegib] + C[C@@H]1CCN(C(=O)CC#N)C[C@@H]1N(C)c1ncnc2[nH]ccc12 [CP690550] (first compound 5 µM, partner dose 5 µM) | 94.2 | 104 | 103 | 105 | 95.6 | 98.6 | 126 | 87.3 | 88.9 | 93.2
6 | CN(c1ncccc1CNc1nc(Nc2ccc3c(c2)CC(=O)N3)ncc1C(F)(F)F)S(C)(=O)=O + C=C(c1ccc(C(=O)O)cc1)c1cc2c(cc1C)C(C)(C)CCC2(C)C [Bexarotene] (first compound 0.4 µM, partner dose 10 µM) | 70.6 | 73.7 | 72.9 | 93.8 | 98.3 | 77.9 | 75.5 | 82.9 | 49.7 | 79.1
7 | CCCS(=O)(=O)Nc1ccc(F)c(C(=O)c2c[nH]c3ncc(Cl)cc23)c1F + COc1cc2c(Oc3ccc4[nH]c(C)cc4c3F)ncnc2cc1OCCCN1CCCC1 [cediranib] (first compound 0.4 µM, partner dose 2 µM) | 60.1 | 86.2 | 73.7 | – | 65 | 81.9 | – | 90.5 | 53.4 | 85.9
8 | CN(c1ncccc1CNc1nc(Nc2ccc3c(c2)CC(=O)N3)ncc1C(F)(F)F)S(C)(=O)=O + OCCn1cc(-c2cnc3nnn(Cc4ccc5ncccc5c4)c3n2)cn1 [PF04217903] (first compound 0.4 µM, partner dose 5 µM) | 78.5 | 87.9 | 71.5 | 84 | 74.7 | 90.8 | 94.1 | 79.7 | 44.3 | 84.1
9 | CN(c1ncccc1CNc1nc(Nc2ccc3c(c2)CC(=O)N3)ncc1C(F)(F)F)S(C)(=O)=O + O=C(Nc1cccc(Cl)c1)Nc1ncc(CCNc2ncnc3ccsc23)s1 [SNS314] (first compound 0.4 µM, partner dose 0.004 µM) | 57.9 | 79.8 | 60.6 | 81.7 | 65.7 | 71.7 | 80.4 | 71.6 | 55.8 | 66.7
10 | CS(=O)(=O)c1ccc(C(=O)Nc2ccc(Cl)c(-c3ccccn3)c2)c(Cl)c1 [vismodegib] + CN(NC(=O)CC(=O)NN(C)C(=S)c1ccccc1)C(=S)c1ccccc1 [STA4783] (first compound 5 µM, partner dose 0.03 µM) | 32.7 | 86.9 | 52.2 | – | 75.7 | 94.4 | – | 10.9 | 112 | 66
11 | CS(=O)(=O)c1ccc(C(=O)Nc2ccc(Cl)c(-c3ccccn3)c2)c(Cl)c1 [vismodegib] + Nc1cccc2c1CN(C1CCC(=O)NC1=O)C2=O [lenalidomide] (first compound 5 µM, partner dose 5 µM) | 92.6 | 107 | 88.5 | 129 | 110 | 100 | 105 | 108 | 126 | 87
